Among all 48,000 compounds or so, about 550 (1.1%) were called active. Another 4% or so got no clear call; they are omitted. Rule as the data show it: active = potency below about 15 µM; inconclusive = mostly about 16 µM to 33 µM; inactive = weaker than that. The list shows a part of the results.
target: Lysosomal acid glucosylceramidase (Homo sapiens) (UniProt P04062); assay: Glucocerebrosidase; conditions: purified enzyme, resorufin glucoside fluorescence (screen aimed at inhibitors), 20 min;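 also: the screen sought inhibitors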
How it was run: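 Compounds titrated against 0.2 nM normal enzyme, 30 uM resorufin beta-D-glucopyranoside substrate, citrate/phosphate buffer with taurocholate and tween-20, pH 5.9. Reaction ran 20 min at room temperature; fluorescence (Ex 548/Em 600) gave AC50.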
Potency is read from the fitted curve at half-maximal effect.

Chain of UniProt P04062 (P04062 whole entry, looked up): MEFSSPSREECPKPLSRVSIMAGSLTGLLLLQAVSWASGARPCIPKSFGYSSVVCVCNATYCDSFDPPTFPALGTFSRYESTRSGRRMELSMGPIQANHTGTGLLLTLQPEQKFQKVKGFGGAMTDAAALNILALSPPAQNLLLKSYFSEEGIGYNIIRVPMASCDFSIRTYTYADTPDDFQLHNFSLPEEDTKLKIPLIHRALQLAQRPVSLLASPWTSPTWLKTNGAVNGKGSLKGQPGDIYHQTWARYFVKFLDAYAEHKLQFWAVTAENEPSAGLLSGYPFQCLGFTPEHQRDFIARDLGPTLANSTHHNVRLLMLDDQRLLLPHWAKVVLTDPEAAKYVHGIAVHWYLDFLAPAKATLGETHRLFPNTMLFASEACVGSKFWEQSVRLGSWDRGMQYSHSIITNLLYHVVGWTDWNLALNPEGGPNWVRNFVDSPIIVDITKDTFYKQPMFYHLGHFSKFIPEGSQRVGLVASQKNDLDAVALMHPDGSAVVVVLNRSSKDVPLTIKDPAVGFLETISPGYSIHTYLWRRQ

Potency, active:
COc1ccc(N2CCN(Cc3cc(=O)oc4c3ccc3ccccc34)CC2)cc1 3.32 µM

Potency, inactive:
CC(C)CN1C(=O)NC(NC(=O)c2ccco2)(C(F)(F)F)C1=O (configuration not stated) > 76.9 µM
COc1cc(OC)cc(C(C)=O)c1 > 76.9 µM
COc1cc2[nH]c(=O)n(CCCC(=O)N3CC=C(c4ccccc4)CC3)c(=O)c2cc1OC > 76.9 µM
Cn1c(=O)c(C(=O)Nc2ccccn2)c(O)c2ccccc21 > 76.9 µM
COc1cc(NC(=O)C2CCN(S(=O)(=O)c3cccnc3)CC2)cc(OC)c1OC > 76.9 µM
N#CCCN1CCN(Cc2cc(-c3ccccc3)ccc2O)CC1
Cn1c(C(=O)N2COCC2(C)C)cc2c(=O)n3ccccc3nc21 > 76.9 µM
COc1ccc(S(=O)(=O)Nc2ccccn2)cc1OC > 76.9 µM
COC(=O)C1=C(C)NC(C)=C(C(=O)OC)C1c1ccc(NC(C)=O)cc1 > 76.9 µM
Cc1cc(N2CCCC2=O)cc(C)c1CN1C(=O)c2ccccc2C1=O > 76.9 µM
O=C(CN1C(=O)C2CC=CCC2C1=O)Nc1nccs1 (configuration not stated) > 76.9 µM
CC1=C(C)C(=O)N(c2ccccn2)C1=O > 76.9 µM
O=C(CSc1nc(Nc2ccccc2)nc(N2CCOCC2)n1)Nc1ccccc1Cl > 76.9 µM
N#C/C(=C(/O)COC(=O)Cc1c[nH]c2ccccc12)c1nc2ccccc2[nH]1
Cc1nc2c3c(-c4ccccc4)nc(N4CCOCC4)nc3nn2c(C)c1CCC(=O)O > 76.9 µM
COc1ccc(C(=O)NCc2nnc(SCC(=O)Nc3cccc(C(F)(F)F)c3)o2)cc1OC > 76.9 µM
O=C(NCC1CCCO1)c1nn2c(c1Cl)NC(c1ccc(F)cc1)CC2C(F)(F)F (configuration not stated) > 76.9 µM
CC(C)c1cc(C(=O)NC2CCCCC2)no1 > 76.9 µM
CCOc1ccccc1-c1nc(-c2ccc(NC(=O)Cc3ccc(OC)cc3)cc2)no1 > 76.9 µM
CCOC(=O)c1ccccc1NC(=O)c1cc(S(=O)(=O)N2CCOCC2)ccc1F > 76.9 µM
CCC(=O)N1CCc2cc(Br)cc(S(=O)(=O)N3CCN(C(=O)c4ccco4)CC3)c21 > 76.9 µM
Cc1cc(C)nc(N2CCCC(C(=O)NC(C)CCc3ccco3)C2)n1 (configuration not stated) > 76.9 µM
CS(=O)(=O)N(CC(N)=O)c1ccc(F)c(Cl)c1 > 76.9 µM
Fc1ccc(C(c2nnnn2Cc2ccco2)N2CCN(C3CCCCC3)CC2)cc1 (configuration not stated) > 76.9 µM
CCCc1cc(=O)[nH]c(SCC(N)=O)n1 > 76.9 µM
COC(=O)CSc1nnc(CNc2ccc(F)cc2)o1 > 76.9 µM
O=C(c1ccc2c(c1)C(=O)N(Cc1ccco1)C2=O)N1CCOCC1 > 76.9 µM
COC(=O)c1noc(-c2ccc(OC)cc2)n1 > 76.9 µM
COc1ccccc1N1CCN(c2nc(-c3ccccc3)cc(C(F)(F)F)n2)CC1 > 76.9 µM
CCn1c(SCC(=O)NC2CCCCC2)nc2c(c1=O)SC(C)C2 (configuration not stated) > 76.9 µM
CN(C)c1nc(NS(=O)(=O)c2ccc(Cl)cc2)nc(N(C)C)n1 > 76.9 µM
CC(C)C(C)(C#N)NC(=O)CSc1nnc(-c2ccncc2)n1Cc1ccccc1 (configuration not stated) > 76.9 µM
Cc1cc(C)n(-c2nc3c(c(=O)[nH]c(=O)n3C)n2Cc2ccccc2)n1 > 76.9 µM
CC(C)(C)n1nnnc1C(c1cccs1)N1CCN(Cc2ccccc2)CC1 (configuration not stated) > 76.9 µM
COCCCN(C(=O)c1cccnc1SC)c1c(N)n(Cc2ccccc2)c(=O)[nH]c1=O > 76.9 µM
CCCc1nnc(NC(=O)C(C)N2C(=O)C3C4C=CC(C4)C3C2=O)s1 (configuration not stated) > 76.9 µM
COC(=O)c1ccccc1NC(=O)COC(=O)CSCC(=O)N1CCOCC1 > 76.9 µM
Cc1ccc(-c2ccc(CCC(=O)O)n2Cc2ccco2)cc1 > 76.9 µM
CCc1ccc(OC(=O)c2ccn(CC)n2)cc1 > 76.9 µM
O=C(N1CCOCC1)N1CCN(C(=O)N(c2ccccc2)c2ccccc2)CC1 > 76.9 µM
O=C(Cc1cccs1)Nc1ccc(-c2nnn(CC(=O)N3CCOCC3)n2)cc1 > 76.9 µM
COc1ccc(C(C)(C)C)cc1NC(=O)C1C2C=CC(C2)C1C(=O)O (configuration not stated) > 76.9 µM
Cc1ccnc(NC(=O)COC(=O)C2COc3ccccc3O2)n1 (configuration not stated) > 76.9 µM
CC(C)Nc1c(N)c(=O)oc2ccccc12 > 76.9 µM
COc1ccccc1C(=O)n1nc(-c2ccccc2)nc1N > 76.9 µM
CC(=O)NC1(c2cccc(F)c2)CCN(C(=O)Nc2ccc(C#N)cc2)CC1 > 76.9 µM
COCCOC(=O)C1=C(C)NC(=O)NC1c1cn(-c2ccccc2)nc1-c1cccs1 (configuration not stated) > 76.9 µM
COCCn1nnnc1C(c1cc2cc(C)cc(C)c2[nH]c1=O)N1CCN(c2ccccc2F)CC1 (configuration not stated) > 76.9 µM
O=C(O)CCSc1nc2ccccc2c(=O)[nH]1 > 76.9 µM
COc1ccc(CN2CC(C(=O)NCCCOC(C)C)CC2=O)cc1 (configuration not stated) > 76.9 µM
Cc1nc(N2CCC(C)CC2)c2c(C)c(C(=O)O)sc2n1 > 76.9 µM
Cc1nccc2[nH]c(=O)c(C(=O)NCCCN(C)C3CCCCC3)cc12 > 76.9 µM
O=C(CN1C(=O)CCC1=O)Nc1nc(-c2cccs2)cs1 > 76.9 µM
c1cn(C23CC4CC(CC(C4)C2)C3)cn1 > 76.9 µM
Clc1ccc(-c2nnc3sc(-c4ccccn4)nn23)cc1 > 76.9 µM
O=C(NCCN1CCN(c2ccccc2F)CC1)C1c2ccccc2C(=O)N2CCc3ccccc3C12 (configuration not stated) > 76.9 µM

— PubChem BioAssay AID360 (National Center for Advancing Translational Sciences (NCATS), 2006)
